Test results taken from article PMC4336329 (PLoS ONE, 2015).
Hit rate of the full screen: of about 310,000 compounds, about 14,000 (4.5%) showed an effect of 50% or more. Effects have a minus sign here. This is one part of the list.

Target: human ether-à-go-go-related gene (hERG) potassium channel (human, UniProt Q12809)
Assay: primary screen, population patch clamp on CHO cells stably expressing hERG
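Note: peak tail current of the secondary pulse compared with the same well before compound.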

human ether-à-go-go-related gene (hERG) potassium channel, sequence (Q12809 whole entry, looked up): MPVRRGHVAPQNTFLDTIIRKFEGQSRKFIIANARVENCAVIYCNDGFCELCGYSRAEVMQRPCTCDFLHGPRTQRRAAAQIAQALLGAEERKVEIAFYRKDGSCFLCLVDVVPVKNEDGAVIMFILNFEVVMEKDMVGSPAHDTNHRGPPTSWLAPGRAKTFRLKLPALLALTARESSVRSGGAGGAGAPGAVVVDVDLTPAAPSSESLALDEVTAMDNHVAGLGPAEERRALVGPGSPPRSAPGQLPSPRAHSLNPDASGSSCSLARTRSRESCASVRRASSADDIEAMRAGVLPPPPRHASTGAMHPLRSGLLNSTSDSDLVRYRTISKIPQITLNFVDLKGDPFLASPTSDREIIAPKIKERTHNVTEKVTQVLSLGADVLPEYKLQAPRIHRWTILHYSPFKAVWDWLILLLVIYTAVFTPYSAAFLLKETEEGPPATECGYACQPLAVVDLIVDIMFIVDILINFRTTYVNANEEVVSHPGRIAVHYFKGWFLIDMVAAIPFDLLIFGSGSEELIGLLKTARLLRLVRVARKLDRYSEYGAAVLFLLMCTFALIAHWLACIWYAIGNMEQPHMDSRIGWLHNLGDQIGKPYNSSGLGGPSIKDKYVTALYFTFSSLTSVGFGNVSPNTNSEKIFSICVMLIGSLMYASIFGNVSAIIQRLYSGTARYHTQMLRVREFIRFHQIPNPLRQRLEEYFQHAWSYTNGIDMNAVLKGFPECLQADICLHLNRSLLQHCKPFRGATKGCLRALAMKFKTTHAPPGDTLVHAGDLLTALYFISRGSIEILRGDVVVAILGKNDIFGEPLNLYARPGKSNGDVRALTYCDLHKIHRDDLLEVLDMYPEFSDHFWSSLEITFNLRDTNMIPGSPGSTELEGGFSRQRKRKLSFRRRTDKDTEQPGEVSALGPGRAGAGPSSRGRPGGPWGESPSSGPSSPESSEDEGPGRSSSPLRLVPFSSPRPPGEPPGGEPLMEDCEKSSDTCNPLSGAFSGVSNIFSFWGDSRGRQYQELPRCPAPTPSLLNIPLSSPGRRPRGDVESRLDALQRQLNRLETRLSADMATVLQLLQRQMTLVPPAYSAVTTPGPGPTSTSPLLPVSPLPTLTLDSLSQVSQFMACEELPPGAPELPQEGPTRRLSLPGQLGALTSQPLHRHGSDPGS

In order of falling “hERG current change (%, negative = inhibition) at 10uM” value:
1. COc1ccc(NC(=O)C2(c3ccccc3)CCCC2)cc1  47.3%
2. CC(=O)Nc1ccc(S(=O)(=O)NNC(=O)COc2cccc(C)c2)cc1  20.9%
3. COc1ccc(N(CC(=O)N2CCOCC2)S(C)(=O)=O)cc1  19.1%
4. CC(C(=O)O)n1c2ccccc2c2cnn(C)c(=O)c21 (stereo not shown)  18.9%
5. Nc1nonc1-n1nnc(C(=O)N/N=C/c2cccc(Cl)c2)c1CSc1ccccc1  18.8%
6. O=C(O)c1cc2ncc(-c3[nH]ncc3[N+](=O)[O-])cn2n1  18.2%
7. O=S(=O)(c1cccs1)N1CCN(CCc2ccccc2)CC1  18%
8. Cc1ccc(N=C(N)N=C(N)N)cc1  16.9%
9. O=C(NC(=S)Nn1cnc2c(cnn2-c2ccccc2)c1=O)c1ccccc1  15.7%
10. Cc1cc(OCC(=O)N2CCC(C(N)=O)CC2)c2c(C)cc(=O)oc2c1  15.6%
11. Cc1ccc2oc(C(=O)NCc3ccc(S(N)(=O)=O)cc3)cc(=O)c2c1  14.7%
12. Cc1ccc(Oc2ncccc2/C=N/OCc2ccc(Cl)cc2Cl)cc1  14.7%
13. COc1ccc(C)cc1N(C)C(=O)Cc1c(C(=O)O)n(C)c2ccccc12  14.1%
14. CSc1nc(Cl)cc(N2CCOCC2)n1  13.5%
15. CC(=O)Nc1ccc(N2C(=O)c3cccc4c(O)ccc(c34)C2=O)cc1  13.4%
16. CCOc1ccc2c(c1)C(NC(C)=O)C(=O)N2CCN1CCOCC1.Cl (stereo not shown)  13.2%
17. Nc1nnc(SCC(=O)Nc2nnc(-c3ccccc3)o2)s1  12.1%
18. NC(=O)[C@@H]1CCCNc2c(F)cc([N+](=O)[O-])cc2C(=O)N[C@@H](CO)C(=O)NCC(=O)N1  11.5%
19. CC(=O)c1ccc(NC(=O)Nc2ccc([N+](=O)[O-])cc2)cc1  11.2%
20. O=C(N/N=C/c1ccc2c(c1)OCO2)c1ccc(NS(=O)(=O)c2cccs2)cc1  11.1%
21. Cc1ccc(-n2c(SCC(=O)Nc3ccc4c5c(cccc35)CC4)nc(O)c(C)c2=O)cc1  11%
22. O=C1c2cccc3cc(Br)cc(c23)C(=O)N1Nc1ccccc1  10.3%
23. Cc1ccc(N(C(=O)c2nsc(Cl)c2Cl)C(C(=O)NC2CCCC2)c2ccc(O)cc2)cc1C (stereo not shown)  9.52%
24. COc1ccc(C2(C)CC(=O)NC2=O)cc1 (stereo not shown)  8.96%
25. Cc1cccc(NC(=O)CCS(=O)(=O)c2ccccc2)n1  7.86%
26. CCOC(=O)C1CCCCN1Cc1ccc(C(F)(F)F)cc1 (stereo not shown)  7.75%
27. O=C(OCc1ccco1)c1cccnc1  7.66%
28. CC1CCCC(n2cnc3cc(C(=O)O)ccc32)C1C (stereo not shown)  7.52%
29. COc1ccc(C(=O)O/N=C/c2ccc(S(=O)c3ccc(Cl)cc3)nc2)cc1 (stereo not shown)  7.36%
30. COc1ccc(S(=O)(=O)N2CCC(C(=O)NCCC(=O)Nc3cccc(OC)c3)CC2)cc1  7.35%
31. CCN(CC(=O)NC1CCCC1)S(=O)(=O)c1ccc(Br)cc1  7.29%
32. O=C(NNC(=O)c1c(F)cccc1F)c1ccccc1OC(F)(F)F  7.23%
33. Cc1ccsc1C(C(=O)NC(C)(C)C)N(Cc1ccco1)C(=O)c1csnn1 (stereo not shown)  6.38%
34. CCOc1ccc(/C=N/NC(=O)c2ccccc2NC(=O)c2ccc(OC)cc2)cc1  6.3%
35. N/C(=N\OC(=O)c1cccc(Br)c1)c1ccc(Br)cc1  6.21%
36. FCCCOc1ccc(/C=N/OCc2ccc(Cl)cc2Cl)cc1  6.01%
37. CC(C)N=C(NC#N)SCC(=O)NC(C)(C)C  5.68%
38. O=C(CSCc1cccc(Cl)c1)OCc1nc2ccsc2c(=O)[nH]1  5.41%
39. COc1ccc(NC(=O)C(CC(=O)O)Cc2ccccc2)cc1 (stereo not shown)  5.36%
40. CCc1nnc(NC(=O)c2oc3cc(C)c(C)cc3c2C)s1  5.05%
41. CCCCn1c(N)c(N(CCOC)C(=O)COC(=O)c2cc(CCC)c(C)s2)c(=O)[nH]c1=O  4.61%
42. CCCNC(=O)N1[C@H]2CC[C@@H]1C(C(=O)OC)=C(c1ccc(C(C)=O)cc1)C2  4.58%
43. CC(SC1CCCC1)C(=O)Nc1ccnn1C(C)C (stereo not shown)  3.55%
44. CC1(C)CC(NC(=O)c2ccc(Cl)cc2Cl)CC(C)(C)N1  2.81%
45. CCCn1c(SC(C(=O)Nc2cccc(OC)c2)c2ccccc2)nc2ccccc2c1=O (stereo not shown)  2.72%
46. O=C(CCN1C(=O)C2CC=CCC2C1=O)N1CCN(c2ccccn2)CC1 (stereo not shown)  2.5%
47. O=C(O)COc1ccccc1/C=N/NC(=O)CNC(=O)c1ccc(F)cc1  2.24%
48. Cc1ccccc1NC(=O)CN1C(=O)NC2(CCCCC2)C1=O  -0.562%
49. Cc1ccc(S(=O)(=O)CC(C)(O)CS(=O)(=O)c2ccc(C)cc2)cc1  -0.571%
50. Cc1ccc(C)c(S(=O)(=O)N2CCN(C(=O)C3CC3C)CC2)c1 (stereo not shown)  -0.798%
51. COC(=O)NC1(C(=O)O)CCCC1  -0.802%
52. CCC(C)N(C(=O)Cn1c(Cl)nc2c1c(=O)n(C)c(=O)n2C)C1CCS(=O)(=O)C1 (stereo not shown)  -1.18%
53. C/C(=N\NC(=O)c1nnn(-c2nonc2N)c1-c1cccs1)c1ccncc1  -2.03%
54. CCCc1n[nH]c2c1C(=O)C(C(=O)OC)C(C)(C)C2 (stereo not shown)  -2.23%
55. O=C(NC(=S)Nc1ccccc1N1CCCC1)c1ccco1  -3.55%
56. COc1ccc(C(=O)N(C)Cc2ccc(C)o2)cc1OC1CCN(C(C)C)CC1  -4.74%
57. COc1cc(NC(=O)C/C(C)=N/NC(=O)Cc2ccc(Cl)cc2)c(OC)cc1Cl  -5.68%
58. Oc1nc(-c2ccc(Br)cc2)n2ccncc12  -8.14%
59. COc1cccc(/C=C/C(=O)OCC(=O)Nc2nnc(-c3ccccc3)o2)c1  -8.64%
60. O=C(c1cccc(Oc2c(Cl)cccc2[N+](=O)[O-])c1)N1CCOCC1  -9.47%
61. CCn1cc(C(c2ccccc2)C(C(C)=O)[N+](=O)[O-])c2ccccc21 (stereo not shown)  -10.1%
62. CCN(CC)Cc1c(O)c(Cl)cc2c3c(c(=O)oc12)CCCC3  -10.1%
63. Cc1ccc(NC(=O)c2cc(S(=O)(=O)N(C)C)ccc2N2CCCC2)cc1F  -11.8%
64. N#Cc1ccsc1NC(=O)c1cnccn1  -12.3%
65. CCOc1ccc(CNC(=O)Cn2nc(C)c3c(C)n(-c4ccc(C)cc4)nc3c2=O)cc1  -13.2%
66. CNS(=O)(=O)c1cccc(C(=O)OCC(=O)Nc2ccccc2OC(F)F)c1  -14.5%
67. CN(C)Cc1ccccc1Sc1ccc(Br)cc1  -15.6%
68. O=c1[nH]c(CN2CCN(c3ncccn3)CC2)nc2c(Br)cc(Br)cc12  -15.9%
69. O=S1(=O)C=C(Sc2nnc(-c3ccccc3)o2)c2ccccc21  -16.2%
70. O=C(CSc1nc2[nH]ncc2c(=O)n1-c1ccccc1)N1CCCCCC1  -16.4%
71. COc1cc(C(=O)NCC(c2cccnc2)N2CCN(c3ccccc3)CC2)cc(OC)c1OC (stereo not shown)  -17.3%
72. Cc1cc(C(C)(C)C)cc(S(=O)(=O)NCCc2ccncc2)c1C  -18.2%
73. COc1cc(CNCCN(C)C)ccc1OCc1c(F)cccc1Cl.Cl  -19.6%
74. O=C(Nc1ccc(Oc2ccccc2)nc1)C1CCCCN1Cc1ccc(OCCO)cc1 (stereo not shown)  -21.3%
75. Cc1ccc(OCC(=O)NCCC2=CCCCC2)cc1  -22.4%
76. Cc1cc2oc(C(=O)N(Cc3cccs3)C3CCS(=O)(=O)C3)cc(=O)c2cc1Cl (stereo not shown)  -22.9%
77. CCOC(=O)Cn1nc(-c2ccc(C)cc2)ccc1=O  -25.3%
78. O=C(c1ccc2n[nH]nc2c1)N1CCN(c2ccc(C(F)(F)F)cn2)CC1  -26.7%
79. CCCCOP(=O)(c1ccc(N(C)C)cc1)C(O)c1ccccc1F (stereo not shown)  -28%
80. Cc1cccc(NC(=O)COc2ccc(-c3nn(C)c(=O)c4ccccc34)cc2)c1  -28.8%
81. COCCCNC(=O)Cc1c(C)c2c(cc(C)c3c(C(C)(C)C)coc32)oc1=O  -32.3%
82. Cc1noc(C)c1C(=O)N1CCCC(N2CCN(c3cccc(C(F)(F)F)c3)CC2)C1 (stereo not shown)  -35.4%
83. N#CC1=C(N)N2C(=C(C#N)C13CCN(Cc1ccccc1)CC3)Nc1ccccc12  -39.1%
84. CS(=O)(=O)N(Cc1ccc(Cl)cc1)c1ccc(C(=O)NCc2ccccn2)cc1  -47%
85. COC(=O)c1c(NC(=O)CCS(=O)(=O)c2ccccc2)sc2c1CCN(C)C2.Cl  -48%
86. O=C(COCC(=O)N/N=C/c1ccccc1F)N/N=C/c1ccccc1F  -54.8%
87. Cc1nc2c(c(C)nn2-c2ccccc2)c(C)c1CCC(=O)Nc1ccc(CN2CCCC2)cc1  -61%
88. OC(COc1ccccc1)CN1CCN(C(c2ccccc2)c2ccccc2)CC1 (stereo not shown)  -69.6%
